The target in test [1] is T1, human NTCP (Homo sapiens, UniProt Q14973).
T1 sequence (Q14973 1-349): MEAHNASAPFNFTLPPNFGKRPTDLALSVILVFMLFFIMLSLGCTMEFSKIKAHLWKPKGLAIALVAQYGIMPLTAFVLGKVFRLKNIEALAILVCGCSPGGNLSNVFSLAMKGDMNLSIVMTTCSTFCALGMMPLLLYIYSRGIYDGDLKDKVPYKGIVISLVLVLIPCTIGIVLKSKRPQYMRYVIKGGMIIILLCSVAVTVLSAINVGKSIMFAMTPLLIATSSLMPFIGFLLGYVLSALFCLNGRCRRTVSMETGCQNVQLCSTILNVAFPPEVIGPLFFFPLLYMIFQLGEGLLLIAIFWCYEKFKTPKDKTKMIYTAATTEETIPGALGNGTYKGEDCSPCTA
Kind of test: Screening taurocholate uptake assay (96-well, [14C]taurocholate, 10 µM drug). Conditions: for remaining activity at 10 µM: 10 min, read-out: %NTCP activity.

Test [2] addresses T1, human NTCP. The experiment in a line: Screening fluorescent competitive Myrcludex B-FITC binding assay (96-well, 10 µM drug). The conditions noted are these: for remaining activity at 10 µM: 0.5 h; for %NTCP binding: 10 µM drug, Myrcludex B-FITC binding.

We go through 21 compounds from PMC5681660, “Reduced hepatitis B and D viral entry using clinically applied drugs as novel inhibitors of the bile acid transporter NTCP” (Scientific Reports, 2017).

Where a name gives a salt, the structure may show the parent alone. Read-outs that look alike come from different tables or passages of the source.

On to `CN(c1nccc(=O)[nH]1)C1CCN(c2nc3ccccc3n2Cc2ccc(F)cc2)CC1` [Mizolastine], for which the remaining activity at 10 µM in test [1] came to 118%; in test [2] (read-out: %NTCP binding), 85%.

`O=C(NCCN1CCOCC1)c1ccc(Cl)cc1` [Moclobemide]: the remaining activity at 10 µM worked out at 67.7% in test [1] and 82.1% in test [2] (read-out: %NTCP binding).

As for `CCc1c(C)[nH]c2c1C(=O)C(CN1CCOCC1)CC2` (stereo not drawn) [Molindone hydrochloride], the remaining activity at 10 µM turned out to be 92% in test [1] and 73.3% in test [2] (read-out: %NTCP binding).

`CCOC(=O)[N-]c1cn(N2CCOCC2)n[o+]1` [Molsidomine]: the results for the remaining activity at 10 µM in test [1] and in test [2] (read-out: %NTCP binding) were 76.7% and 75.3%, respectively.

For the compound `Oc1ccc(OCc2ccccc2)cc1` [Monobenzone], the remaining activity at 10 µM in test [1] stood at 49.5%; in test [2] (read-out: %NTCP binding) it was 115%.

Consider `Cc1ccsc1/C=C/C1=NCCCN1C` [Morantel tartrate], for which the remaining activity at 10 µM in test [1] was 126%; in test [2] (read-out: %NTCP binding, screen, 10 µM drug, Myrcludex B-FITC binding) it was 111%.

`CCOC(=O)Nc1ccc2c(c1)N(C(=O)CCN1CCOCC1)c1ccccc1S2` [Moricizine hydrochloride]: the remaining activity at 10 µM in test [1] was found to be 115%; in test [2] (read-out: %NTCP binding), 106%.

Turning to `Cl.N=C(N=C(N)N)N1CCOCC1` [Moroxidine hydrochloride], the “%NTCP activity” value in test [1] (Prestwick library screen, 10 µM drug, [14C]taurocholate uptake) turned out to be 57.3352%. For the same compound, the “%NTCP binding” value in test [2] (Prestwick library screen) was determined as 95.4161%.

With `CO[C@@]1(NC(=O)C(C(=O)O)c2ccc(O)cc2)C(=O)N2C(C(=O)O)=C(CSc3nnnn3C)CO[C@@H]21` (stereo partly drawn) [Moxalactam disodium salt], the remaining activity at 10 µM is 87.9% in test [1] and 118% in test [2] (read-out: %NTCP binding).

As for `CC(=O)Oc1cc(C(C)C)c(OCCN(C)C)cc1C.Cl` [Moxisylyte hydrochoride], the “%NTCP activity” value in test [1] turned out to be 129.723%. Besides, the “%NTCP binding” value in test [2] (screen) is 110.76%.

With `COc1nc(C)nc(Cl)c1N=C1NCCN1` [Moxonidine], the figures for the remaining activity at 10 µM in test [1] and in test [2] (read-out: %NTCP binding) were 69.7% and 93.9%, respectively.

As to `CC(=O)N[C@@H](CC(C)C)C(=O)O` [N-Acetyl-L-leucine], the remaining activity at 10 µM came to 91.4% in test [1] and 129% in test [2] (read-out: %NTCP binding).

On to `COc1ccc2cc(CCC(C)=O)ccc2c1` [Nabumetone], for which the remaining activity at 10 µM in test [1] was 49.5%; in test [2] (read-out: %NTCP binding), 107%.

Regarding `NC(=O)c1ccc[n+]([C@@H]2O[C@H](COP(=O)([O-])OP(=O)(O)OC[C@H]3O[C@@H](n4cnc5c(N)ncnc54)[C@H](O)[C@@H]3O)[C@@H](O)[C@H]2O)c1` [Nadide], the remaining activity at 10 µM in test [1] was determined as 118%; in test [2] (read-out: %NTCP binding) it was 99.8%.

On to `CC1CCc2c(N3CCC(O)CC3)c(F)cc3c(=O)c(C(=O)O)cn1c23` (stereo not drawn) [Nadifloxacin], for which the remaining activity at 10 µM was 113% in test [1] and 98.2% in test [2] (read-out: %NTCP binding).

Take `CC(C)(C)NCC(O)COc1cccc2c1CC(O)C(O)C2` (stereo not drawn) [Nadolol]: the remaining activity at 10 µM came to 93.6% in test [1] and 113% in test [2] (read-out: %NTCP binding).

With `CCN(CC)CCOC(=O)C(Cc1cccc2ccccc12)CC1CCCO1` (stereo not drawn) [Nafronyl oxalate], the remaining activity at 10 µM came to 79.3% in test [1] and 78.8% in test [2] (read-out: %NTCP binding).

With `COc1ccccc1N1CCN(CC(O)COc2cccc3ccccc23)CC1.Cl.Cl` (stereo not drawn) [Naftopidil dihydrochloride], the “%NTCP activity” value in test [1] (screen, 10 µM drug, [14C]taurocholate uptake) came to 58.9029%. Moreover, in test [2] (screen), the “%NTCP binding” value is on record as 105.331%.

Take `Oc1ccc2c3c1O[C@H]1[C@@H](O)CC[C@@]4(O)[C@@H](C2)N(CC2CCC2)CC[C@]314` [Nalbuphine hydrochloride]: the remaining activity at 10 µM was determined as 38.8% in test [1] and 89.7% in test [2] (read-out: %NTCP binding).

Consider `C=CCN1CC[C@]23c4c5ccc(O)c4O[C@H]2C(=O)CC[C@@]3(O)[C@H]1C5` [Naloxone hydrochloride], for which the results for the remaining activity at 10 µM in test [1] and in test [2] (read-out: %NTCP binding) were 35.5% and 90.1%, respectively.

Regarding `C[C@]12CC[C@H]3[C@@H](CCC4=CC(=O)CC[C@@H]43)[C@@H]1CC[C@@H]2O` [Nandrolone], the figures for the remaining activity at 10 µM in test [1] and in test [2] (read-out: %NTCP binding) were 72.9% and 113%, respectively.
